Some targets named below: PHB2 S39A-mCherry (UniProt Q99623); MCU-mCherry (UniProt Q8NE86); PHB2-mCherry (UniProt Q99623); PHB2 S39D-mCherry (UniProt Q99623).
Holding throughout (experiment): FRET or BRET; FRET by FLIM in live MCF7 cells; GFP fusion of AURKA (or AURKA ΔNter) as donor, mCherry fusion as acceptor; read-out ΔLifetime; also with DMSO or MG132 (1 μM, 16 h), control or PARK2 siRNA, xanthohumol (AURKA with PHB2), or co-expressed PHB2–6xHis, PHB2 S39A–6xHis or PHB2 S39D–6xHis (AURKA with MAP1LC3B)
In a further experiment the target is T1, PHB-mCherry (UniProt P35232).
T1 sequence: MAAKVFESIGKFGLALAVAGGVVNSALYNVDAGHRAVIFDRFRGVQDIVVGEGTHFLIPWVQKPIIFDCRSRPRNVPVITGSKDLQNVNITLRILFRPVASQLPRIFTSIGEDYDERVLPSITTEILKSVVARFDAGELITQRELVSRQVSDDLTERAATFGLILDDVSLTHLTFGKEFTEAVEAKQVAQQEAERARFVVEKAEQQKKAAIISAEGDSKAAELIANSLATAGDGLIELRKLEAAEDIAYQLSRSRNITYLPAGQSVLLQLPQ

Protein sequences, listed by entry. Tags and fused reporters are not part of them. Lines headed by an entry give the natural chain unless they say otherwise; changes in a name come on top. Residues count along the entry.
UniProt Q8NE86, residues 51-351: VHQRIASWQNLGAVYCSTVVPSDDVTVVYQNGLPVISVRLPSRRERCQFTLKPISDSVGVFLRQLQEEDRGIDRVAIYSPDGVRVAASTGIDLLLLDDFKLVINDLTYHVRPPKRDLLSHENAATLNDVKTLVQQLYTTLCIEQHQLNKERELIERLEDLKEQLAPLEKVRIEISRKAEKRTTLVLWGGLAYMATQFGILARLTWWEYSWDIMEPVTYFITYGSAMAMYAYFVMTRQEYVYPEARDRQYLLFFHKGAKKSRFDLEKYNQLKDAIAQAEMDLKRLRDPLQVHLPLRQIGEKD

The next experiment deals with T2, LAMP1–mCherry (UniProt P11279).
T2 sequence: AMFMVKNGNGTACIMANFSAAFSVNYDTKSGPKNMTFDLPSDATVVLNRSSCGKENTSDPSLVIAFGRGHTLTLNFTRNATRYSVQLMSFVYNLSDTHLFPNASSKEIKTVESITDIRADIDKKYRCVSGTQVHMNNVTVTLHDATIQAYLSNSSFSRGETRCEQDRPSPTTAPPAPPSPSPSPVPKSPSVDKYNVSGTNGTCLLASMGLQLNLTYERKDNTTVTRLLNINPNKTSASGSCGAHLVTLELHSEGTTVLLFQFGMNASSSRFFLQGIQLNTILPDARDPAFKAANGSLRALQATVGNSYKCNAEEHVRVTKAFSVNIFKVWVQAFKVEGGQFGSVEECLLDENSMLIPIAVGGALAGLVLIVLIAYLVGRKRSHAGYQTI

Results are given in words; binding and its absence hold for the method and conditions named. Binding seen in cells or lysates may run through a third protein. Some binding calls cover weakened binding; strength is not graded here. Where a sequence is shown, tags or fusion partners need not be part of it.

B1: AURKA–GFP (enzyme, UniProt O14965 1-403)
chain: MDRSKENCISGPVKATAPVGGPKRVLVTQQFPCQNPLPVNSGQAQRVLCPSNSSQRIPLQAQKLVSSHKPVQNQKQKQLQATSVPHPVSRPLNNTQKSKQPLPSAPENNPEEELASKQKNEESKKRQWALEDFEIGRPLGKGKFGNVYLAREKQSKFILALKVLFKAQLEKAGVEHQLRREVEIQSHLRHPNILRLYGYFHDATRVYLILEYAPLGTVYRELQKLSKFDEQRTATYITELANALSYCHSKRVIHRDIKPENLLLGSAGELKIADFGWSVHAPSSRRTTLCGTLDYLPPEMIEGRMHDEKVDLWSLGVLCYEFLVGKPPFEANTYQETYKRISRVEFTFPDFVTEGARDLISRLLKHNPSQRPMLREVLEHPWITANSSKPSNCQNKESASKQS
For the molecule B1, the binding entry is “binds” with PHB2 S39A-mCherry; “binds” in the experiment with PHB-mCherry; “no binding” with MCU-mCherry; “binds” in the experiment with LAMP1–mCherry; “binds” with PHB2-mCherry; “binds” with PHB2 S39D-mCherry.

These data come from paper PMC8046421.
